{"source": "PubChem BioAssay AID686978", "about": "(National Center for Advancing Translational Sciences (NCATS), 2013)", "note": "In all, about 420,000 compounds went through this assay and about 64,000 (15%) were called active. Inconclusive results, whose numbers are uncertain, are shown with a selection of clear calls. Calls follow the shape of the dose curve; as a rule, active = well fitted inhibition curve with a large enough effect; inconclusive = small, poorly fitted or top-dose-only effect; inactive = flat fitted curve, though single readings scatter. No potency is given beside an inconclusive call; the fits are too rough. % is scaled to controls: 0 for no effect and ±100 for the full control effect; potency is read from the fitted curve at half-maximal effect; tags tell the direction and shape of the fitted curve."}
{"test": "qHTS for Inhibitors of human tyrosyl-DNA phosphodiesterase 1 (TDP1): qHTS in cells in absence of CPT; also: nearly all actives have a fitted effect of over 55% in size", "conditions": "DT40 Tdp1-/- hTDP1 cells, no CPT, ATP luminescence, 48 h; activity change, negative = growth inhibition: at 46.2 µM (top of the series) unless noted", "summary_of_the_method": "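DT40 Tdp1-/-;hTDP1 cells, no CPT (DMSO vehicle only), 400 cells/well; compounds pin-transferred; ≥48 hr, 37 °C; CellTiter-Glo 30 min RT dark, luminescence read.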"}
{"smiles": "O=C(c1cn(Cc2ccccc2)nc1-c1cccnc1)N1CCN(Cc2c(F)cccc2Cl)CC1", "Potency": "active: 29.1 µM"}
{"smiles": "Cc1cc(C)nc(NC2=NC3CCCCC3N2)n1", "note": "(stereo not drawn)", "Potency": "inconclusive [inhibitor, single point]"}
{"smiles": "Cc1ccc(C)c(CN2C(=O)c3ccccc3S(=O)(=O)c3ccc(C(=O)N4CCCC4)cc32)c1", "Potency": "inconclusive [inhibitor, partial curve]"}
{"smiles": "CC(C)c1ccc(NC(=O)C2CCN(S(=O)(=O)c3ccc4c(c3)C(C)(C)C(=O)N4C)CC2)cc1", "Potency": "inconclusive [inhibitor, single point]"}
{"smiles": "Cc1cc(C)cc(NC(=O)COc2coc(CN3CCc4ccccc43)cc2=O)c1", "Potency": "inconclusive [inhibitor, partial curve]"}
{"smiles": "O=C1CCCC/C=C\\C[C@H](CC(=O)N(CCO)Cc2ccccc2)C(=O)NC[C@H](c2ccccc2)O1", "Potency": "inconclusive [inhibitor, single point]"}
{"smiles": "CC(=O)NCCNc1nc2c(-c3ccc(C)cc3)nnn2c2ccccc12", "Potency": "inactive"}
{"smiles": "c1ccc2cc(OCc3nc4ccccc4[nH]3)ccc2c1", "Potency": "inconclusive [inhibitor, single point]"}
{"smiles": "CCOC(=O)CSc1nc2c(sc3ccccc32)c(=O)n1Cc1ccc(C)cc1", "Potency": "inconclusive [inhibitor, partial curve]"}
{"smiles": "CCc1sc(Nc2ccc(C)cc2Br)nc1-c1cc2cccc(OC)c2oc1=O", "Potency": "inconclusive [inhibitor, single point]"}
{"smiles": "CCc1c(C)nc2c(OC)cccc2c1Cl", "Potency": "inconclusive [inhibitor, single point]"}
{"smiles": "Cc1nnsc1C(=O)N1CCCC(Nc2ccc(F)c(F)c2)C1", "note": "(stereo not drawn)", "Potency": "inactive"}
{"smiles": "COc1ccc(-c2cn3c(C)c(C(=O)N4CCCc5ccccc54)sc3n2)cc1", "Potency": "inconclusive [inhibitor, single point]"}
{"smiles": "COc1ccc(N2CCN(C(=O)C(NC(=O)c3c(F)cccc3F)C(C)C)CC2)cc1", "note": "(stereo not drawn)", "Potency": "inconclusive [inhibitor, single point]"}
{"smiles": "NS(=O)(=O)c1ccc(Sc2ccccn2)c([N+](=O)[O-])c1", "Potency": "inconclusive [inhibitor, single point]"}
{"smiles": "C#CCOc1ccccc1C(N)=O", "Potency": "inactive"}
{"smiles": "Cc1occc1-c1nnc(SCC(=O)Nc2ccccc2N2CCCCC2)n1C", "Potency": "active: 18.4 µM"}
{"smiles": "FC(F)(F)c1cc(-c2ccco2)nc(NCCc2ccccc2)n1", "Potency": "inconclusive [inhibitor, single point]"}
{"smiles": "O=C(Cn1c2c(c(-c3ccccc3Cl)cc1=O)CCC2)NCCCN1CCOCC1", "Potency": "inactive"}
{"smiles": "Nc1c(S(=O)(=O)c2cccs2)c2nc3ccccc3nc2n1CC1CCCO1", "note": "(stereo not drawn)", "Potency": "inactive"}
{"smiles": "CC(C)C[C@H]1CNC(=S)N1C[C@H]1CCCN1C[C@H](CC(C)C)N1C[C@H](CC(C)C)N(CCc2ccccc2)C1=S", "Potency": "active: 25.9 µM"}
{"smiles": "CCCN(CCC)C(=O)Cn1c(=O)n(-c2ccc(C)cc2)c(=O)c2ccc(C(=O)NCc3ccccc3Cl)cc21", "Potency": "inconclusive [inhibitor, single point]"}
{"smiles": "CCC(C(=O)NC1CCCC1)n1c2ccccc2c2nc(=O)cc(C)n21", "note": "(stereo not drawn)", "Potency": "inactive"}
{"smiles": "Cc1[nH]c2ccccc2c1C(=O)COC(=O)c1ccccc1O", "Potency": "inactive"}
{"smiles": "CCOC(=O)c1sc(N)c(C(=O)OCC)c1C", "Potency": "inconclusive [inhibitor, single point]"}
{"smiles": "CC1=C(OC(=O)C(C)(C)C)C(C)(C)C(c2ccccc2)OC1=O", "note": "(stereo not drawn)", "Potency": "inconclusive [inhibitor, single point]"}
{"smiles": "COc1cc(OC)cc(C(=O)Nc2cc(C)nn2-c2ccccc2)c1", "Potency": "inactive"}
{"smiles": "O=C(NCCN1CCCCCC1)C1CCCN1S(=O)(=O)c1cccc2nsnc12", "note": "(stereo not drawn)", "Potency": "inactive"}
{"smiles": "CC(C(=O)N1CCCCC1)n1ncn2cccc2c1=O", "note": "(stereo not drawn)", "Potency": "inactive"}
{"smiles": "COC(=O)c1cc(Cl)c(NC(=O)/C=C/c2ccc(OC)c(OC)c2)cc1OC", "Potency": "active: 23.1 µM"}
{"smiles": "CN(Cc1ccc2c(c1)OCO2)C(=O)c1cc(-c2ccccc2)c(N2CCOCC2)s1", "Potency": "inconclusive [inhibitor, single point]"}
{"smiles": "Cc1ccc(-c2cn3c(n2)sc2cc(C(=O)NCc4cccs4)ccc23)cc1", "Potency": "active: 20.6 µM"}
{"smiles": "O=C(O)c1ccc(NC(=O)[C@H](Cc2ccc(O)cc2)NC(=O)c2ccccc2)cc1", "Potency": "inactive"}
{"smiles": "Cc1oc(-c2ccccc2)nc1CSc1nnc(C)n2c1cc1sccc12", "Potency": "inconclusive [inhibitor, single point]"}
{"smiles": "Cc1ccccc1NC(=O)CSc1nc(N)c(C#N)c(-c2cccs2)c1C#N", "Potency": "inconclusive [inhibitor, partial curve, poor fit]"}
{"smiles": "O=C(Nc1cccc(Cl)c1)NC1CCS(=O)(=O)C1", "note": "(stereo not drawn)", "Potency": "inactive"}
{"smiles": "COc1ccc(-c2oc3ncnc(NCCCN4CCOCC4)c3c2-c2ccc(OC)cc2)cc1", "Potency": "active: 18.4 µM"}
{"smiles": "Cc1ccc(-n2nc(CO)c(C(=O)NCC(c3ccccc3)c3ccccc3)n2)cc1", "Potency": "inconclusive [inhibitor, single point]"}
{"smiles": "Cc1[nH]n(-c2ccccc2)c(=O)c1/C=N/n1c(C)nc2ccccc2c1=O", "Potency": "inconclusive [inhibitor, single point]"}
{"smiles": "COc1cccc(C2=CC(=O)C[C@H](c3ccc(F)cc3)C2)c1OC", "Potency": "inactive"}
{"smiles": "COC(=O)N1CCC2(CC1)CN(c1ccncc1)C2", "Potency": "inconclusive [inhibitor, single point]"}
{"smiles": "O=C(CCc1nnc2n(Cc3ccccc3Cl)c(=O)c3ccccc3n12)Nc1ccc(F)c(F)c1", "Potency": "active: 20.6 µM"}
{"smiles": "CCCC(=O)NC(=S)Nc1ccccc1C(F)(F)F", "Potency": "inactive"}
{"smiles": "CCC1CN(C(=O)N2CCC(C(=O)NCCc3ccc(C)cc3)CC2)c2ccccc2O1", "note": "(stereo not drawn)", "Potency": "active: 20.6 µM"}
{"smiles": "CCC(=O)N(C)C[C@H]1Oc2cc(-c3ccccc3F)ccc2S(=O)(=O)N([C@H](C)CO)C[C@H]1C", "Potency": "inconclusive [inhibitor, single point]"}
{"smiles": "O=C(COC(=O)c1ccccc1)NC1CCCC1", "Potency": "inactive"}
{"smiles": "COc1cccc2c1nc(C)c1cc(C)oc12", "activity change, negative = growth inhibition": "inconclusive: -32.8% [inhibitor]"}
{"smiles": "Cc1cc(NC(=O)CN2CCCC2c2nc3ccccc3s2)no1", "note": "(stereo not drawn)", "Potency": "inconclusive [inhibitor, single point]"}
{"smiles": "Cc1ccccc1-c1nnc(CN2CCN(c3cccc(C)c3C)CC2)o1", "Potency": "inactive"}
{"smiles": "Brc1ccc(-c2nnc3sc(CN4CCCCC4)cn23)cc1", "Potency": "inactive"}
{"smiles": "O=C(c1ccc2c(c1)N(Cc1ccccc1)C(=O)CS2)N1CCOCC1", "Potency": "inactive"}
{"smiles": "CCOC(=O)CSc1nc(N)c(C#N)c(-c2cccs2)c1C#N", "Potency": "inconclusive [inhibitor, single point]"}
{"smiles": "C[C@H](CO)N1C[C@H](C)[C@@H](CN(C)C(=O)Nc2ccc(C(F)(F)F)cc2)Oc2ccc(NS(=O)(=O)c3ccccc3)cc2C1=O", "Potency": "inconclusive [inhibitor, partial curve, poor fit]"}
{"smiles": "CCCN1C(=O)c2[nH]nc(-c3ccccc3O)c2C1c1cccc(OCc2ccccc2)c1", "note": "(stereo not drawn)", "Potency": "active: 9.2 µM"}
{"smiles": "CCOc1ccccc1NC(=O)CSc1nnc(N)s1", "Potency": "inactive"}
{"smiles": "Cc1cc(CSc2ccccc2)ccc1NC(=O)c1ccc(Br)cc1", "Potency": "inconclusive [inhibitor, single point]"}
{"smiles": "CCN(CC)S(=O)(=O)c1cc(NS(=O)(=O)c2cccc(Cl)c2)ccc1C", "Potency": "inconclusive [inhibitor, single point]"}
{"smiles": "COc1ccc(-c2nc3c(Br)c(N)c(Br)cc3o2)cc1", "activity change, negative = growth inhibition": "inconclusive: -33.8% [inhibitor]"}
{"smiles": "COc1cccc(NC(=O)CSc2nc3c([nH]c4ccccc43)c(=O)n2-c2ccccc2)c1", "Potency": "inconclusive [inhibitor, single point]"}
{"smiles": "CN(CC(=O)Nc1ccccc1Br)CC(=O)NC(c1ccccc1)c1ccccc1", "Potency": "inconclusive [inhibitor, single point]"}
{"smiles": "O=S1(=O)CCO[C@H]2CCCC[C@@H]2N1Cc1cccc(F)c1", "Potency": "inactive"}
{"smiles": "N#CCC(=O)N/N=C/c1cc(Br)ccc1OCc1cccc2ccccc12", "Potency": "inconclusive [inhibitor, single point]"}
{"smiles": "COc1cccc(N2C(=O)C3CCCN3C2=S)c1", "note": "(stereo not drawn)", "Potency": "inconclusive [inhibitor, partial curve, poor fit]"}
{"smiles": "Cc1cc(Br)cn2c(Cc3ccccc3)c(-c3ccco3)nc12", "Potency": "inconclusive [inhibitor, single point]"}
{"smiles": "CN1C2CCC1CC(NC(=O)CSCc1ccc(Cl)cc1Cl)C2", "note": "(stereo not drawn)", "Potency": "inconclusive [inhibitor, single point]"}
{"smiles": "O=C(NCc1ccccc1Cl)c1cc2c(s1)-c1ccccc1SC2", "Potency": "inconclusive [inhibitor, single point]"}
{"smiles": "O=C(Cn1ncc2c3ccccc3n(Cc3ccccc3F)c2c1=O)NC1CCCCCC1", "Potency": "active: 14.6 µM"}
{"smiles": "Cc1ccc(OCC(=O)N/N=C/c2cn[nH]c2-c2ccc(Cl)c(Cl)c2)cc1", "Potency": "inconclusive [inhibitor, single point]"}
{"smiles": "CC1=CC=CC2=NC(=O)CC(C)(C(=O)O)N12", "note": "(stereo not drawn)", "Potency": "inactive"}
{"smiles": "COC(=O)C1=C(C)N(C(C)c2ccccc2)C(=O)/C1=C\\c1ccco1", "note": "(stereo not drawn)", "Potency": "inconclusive [inhibitor, single point]"}
{"smiles": "CCCNC(=S)NC1CC2CCC(C1)N2Cc1ccccc1", "note": "(stereo not drawn)", "Potency": "inactive"}
{"smiles": "COc1ccc(S(=O)(=O)n2cnc3cc(C)c(C)cc32)cc1C", "Potency": "inconclusive [inhibitor, partial curve]"}
{"smiles": "COc1cc(C(=O)NCC(c2cccnc2)N2CCc3ccccc3C2)cc(OC)c1OC", "note": "(stereo not drawn)", "Potency": "inconclusive [inhibitor, single point]"}
